The list shows a part of the results.

This experiment deals with PF3D7_0420300 AP2 domain 1 (GST-tagged). The experiment in a line: gcPBM binding intensity (ln(normalized median fluorescence intensity)); higher = stronger DNA binding. Put shortly:
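An Agilent 4 × 180k array carrying primer-extended double-stranded 36-bp intergenic genomic probes and negative controls received GST-tagged P. falciparum DNA-binding domains expressed in E. coli, about 25 μg on average, for 1 h. The binding buffer contained 1× PBS, 1% milk, 0.2 mg/ml BSA, 0.5% salmon testes DNA and 0.03% Triton X-100. Binding intensity is the top Masliner-normalised natural-log median intensity across replicate spots of either probe orientation, read after Alexa488 anti-GST antibody staining and a 488 nm scan.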
On to “ATATTCAATATATTATGTACACATATATGAGGATAT [XGTACX_site7019]”, for which the “gcPBM binding intensity (ln)” value was 9.29.
On to “AAACTTTTTTTAAAAACACACATATATATTTATATA [CACACA_site4092]”, for which the “gcPBM binding intensity (ln)” value is 9.22.
Consider “GTTTAAAATCTTTGCACACATATAAATAAATATATT [CACACA_site2555]”, for which the “gcPBM binding intensity (ln)” value is 9.44.
With “AGTATATTAATATAATGTACAAACGTTTATTTTGTA [XGTACX_site5980]”, the “gcPBM binding intensity (ln)” value was 9.22.
Take “GAAAAGTAGACAATATGTACATATAGTATTTATAAA [XGTACX_site878]”: the “gcPBM binding intensity (ln)” value was determined as 9.25.
“AGCAACCCCCTAGCTACACACATATAGATATAAATA [CACACA_site6577]”: the “gcPBM binding intensity (ln)” value was 10.
In the case of “AAATATCTACATATTTGTACATATTTATACATATTT [XGTACX_site6300]”, the “gcPBM binding intensity (ln)” value came out at 9.23.
The value for “ATCATGTTATATATATGTACTAATAATATAATATAA [XGTACX_site1326]” was 9.18.
In the case of “GAATAATCTAGAAACACACAAACACGACAAAAGAAA [CACACA_site4135]”, the “gcPBM binding intensity (ln)” value came to 9.75.
Turning to “TACTAACTTTTTAAAAGTACAGAACCATAACCATAA [XGTACX_site7182]”, the “gcPBM binding intensity (ln)” value is 9.28.
For the sequence “ATATATATATATATATGGTAAAGTAAAAGGAAATAC [XGTACX_negctrl_site45]”, the “gcPBM binding intensity (ln)” value was determined as 9.62.
The value for “AGTCGAATGATGTACACACATACAAAACATTTATGC [CACACA_site4022]” was 9.69.
For “AGTTTATATTATTAAAGTACATATATATATTCTTAA [XGTACX_site3164]”, the “gcPBM binding intensity (ln)” value was 9.29.
Then “CCAAACTAAATGTACACACATACATAAATATAAATA [CACACA_site1141]”, with 9.72; and “ATGTAATAAATATACACACACAAATATATATATATA [CACACA_site2395]”, with 9.86.
The value for “ATATTTTCAGTTCTCCATTATGTTCCCATTATTTTT [CACACA_negctrl_site990]” was 9.71.
The value for CATGAATATTTTAATGTGCACATTTATCATTATATG was 9.32.
Take “GTATAATTGGAAATTACACACCTTATAATGTAACAT [CACACA_site6091]”: the “gcPBM binding intensity (ln)” value stood at 9.38.
With “AATGATTTTAAAAAATGTACTTTATAAACAAAATTA [XGTACX_site3803]”, the “gcPBM binding intensity (ln)” value is 8.81.
The value for “TAAAGTGTCAAATTCACACACATATATATATATATA [CACACA_site1380]” was 9.39.
The value for “TAAATTAGAATAAATACACACAAATTAGAATTCTAT [CACACA_site7781]” was 9.51.
Turning to “TTTTTTTTTGTTAGTTGTACGTTAAATGAATTTACT [XGTACX_site7675]”, the “gcPBM binding intensity (ln)” value was 9.21.
For “ATATTATATAACTTTTGTACGAACTATTTTATATAT [XGTACX_site6]”, the “gcPBM binding intensity (ln)” value turned out to be 9.56.
Then “ACCTATGTATATTATACACACTCCAAACTATTCTTT [CACACA_site6939]”, with 9.7; and “AAAAAAAAATATATATGTACATATGTATAATAAAAA [XGTACX_site2110]”, with 9.41; and “TTTAGAGAAGTCAAGTGTACATATAAAATAATTCAC [XGTACX_site4997]”, with 9.19.
The value for “ATAAAAATAAATAAATTATATAAATGTAATATGAAA [GTGCAC_negctrl_site663]” was 9.18.
Then “TATTTATTTATATATGCATGCTAATAATTATAACAT [TGCATGCA_site988]”, with 9.15; and “AATGAAGACTTTTTTACACACTTCATATATTATATA [CACACA_site2034]”, with 9.56.
As to “AACATTTTAAAATAATGTACTTGAAAAAAAAACTAC [XGTACX_site8894]”, the “gcPBM binding intensity (ln)” value came to 9.18.
Then “TGTTCTAATATTTGTTGTACGTTTACGTTTCTCTCT [XGTACX_site18]”, with 9.42.
Regarding “TATTTAAGAGTATGAACACACATCATACCCATATAA [CACACA_site5911]”, the “gcPBM binding intensity (ln)” value was found to be 9.41.
For the sequence “CATATAAATAAATATACATGCATACATACATATATA [TGCATGCA_site713]”, the “gcPBM binding intensity (ln)” value stood at 9.28.
Regarding “TTAATTTATGTTAATGGTACGTAAATGCATTTATTT [XGTACX_site3002]”, the “gcPBM binding intensity (ln)” value amounted to 9.26.
As for “ATTTAACCAAATAATATATTTAAAAAATAGTCACAT [CACACA_negctrl_site274]”, the “gcPBM binding intensity (ln)” value worked out at 9.21.
The value for “TATAATATATGAAAAAGTACAAATATTTCGATGGTC [XGTACX_site129]” was 9.52.
The value for “TTTTATAATTTGAGAACATGCAACATAAATATAAAG [TGCATGCA_site965]” was 9.2; that for “TAACCAAAAAAAAATATTTAAAATAAATATATATAT [CACACA_negctrl_site1516]” was 9.13; that for “TTTAGTTCATACTATGCACACTACGTATATTTTTAA [CACACA_site5484]” was 9.43.
For “TATTTTCTCTTAAAAAGTACTCATATATACATTTAT [XGTACX_site7748]”, the “gcPBM binding intensity (ln)” value was 9.07.
Then “ATAACATACATAACAACACACAATATTTATAGGTAT [CACACA_site6243]”, with 9.89; and “CGTTATATATTTTATAGTACTTTTTGTAAATTTTTT [XGTACX_site7682]”, with 9.23.
“ATTAATAAGAAGAAAAGTACAAAACAAAAAGATATA [XGTACX_site7473]”: the “gcPBM binding intensity (ln)” value came to 9.65.
Then “ATAATTTATATCATTACACACATTTTTTATATTTTT [CACACA_site3450]”, with 9.67; and “TTTTTGAATGTTTGCACACAAATCTCATAATTTTAG [CACACA_site357]”, with 9.27; and “TAGTTACATAAAATATGTACGTATAATTTTTTTATT [XGTACX_site3847]”, with 9.06.
Then “TTTATTAAATATATATGTACATATCAAAATGTATAA [XGTACX_site3181]”, with 9.05; and “GTTAAACATCTTCTGTGATATGTTAGAATATTATTT [CACACA_negctrl_site687]”, with 9.21.
With “TTTTTTTTCTATTGAGCACACATATCACGATTAGTA [CACACA_site7992]”, the “gcPBM binding intensity (ln)” value came out at 9.23.
Then “TATTTCACAAACCTTACATGCGGTTTATTTATATAT [TGCATGCA_site123]”, with 9.46; and “TTTACACTTTTTTTTGTACACACTAAAAAGATTAAC [CACACA_site3933]”, with 9.22.
Regarding “TGTTGTTACCTATATACACACATATAAATATTATAG [CACACA_site7180]”, the “gcPBM binding intensity (ln)” value worked out at 9.34.
The value for “TTTTTCAGAAAAGAAACACACATATAAATATTTATA [CACACA_site7170]” was 9.17; that for “AAAAAAAAAAAAAAAACACACAAGGATCAGATAGAT [CACACA_site7743]” was 9.8.
The value for “AGGGCATATATATATGCACACATACATATATACATG [CACACA_site9282]” was 9.37; that for “AATATTATGATATTATGTACATATTAAAAGCACCAC [XGTACX_site6236]” was 9.58.
In the case of “TGGTATATACGACACACACACATATGTATAAATATA [CACACA_site6561]”, the “gcPBM binding intensity (ln)” value was determined as 9.97.

These data come from the supplement of paper PMC11417369.
